From PMC4336329 (PLoS ONE, 2015)
The campaign covered roughly 310,000 compounds. About 14,000 (4.5%) showed an effect of 50% or more. Effects have a minus sign here. This is one part of the list.

What follows are compounds tested against human ether-à-go-go-related gene (hERG) potassium channel (human, UniProt Q12809) (assay: primary screen, population patch clamp on CHO cells stably expressing hERG).
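Note: peak tail current of the secondary pulse compared with the same well before compound.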

human ether-à-go-go-related gene (hERG) potassium channel, sequence (Q12809 whole entry, looked up): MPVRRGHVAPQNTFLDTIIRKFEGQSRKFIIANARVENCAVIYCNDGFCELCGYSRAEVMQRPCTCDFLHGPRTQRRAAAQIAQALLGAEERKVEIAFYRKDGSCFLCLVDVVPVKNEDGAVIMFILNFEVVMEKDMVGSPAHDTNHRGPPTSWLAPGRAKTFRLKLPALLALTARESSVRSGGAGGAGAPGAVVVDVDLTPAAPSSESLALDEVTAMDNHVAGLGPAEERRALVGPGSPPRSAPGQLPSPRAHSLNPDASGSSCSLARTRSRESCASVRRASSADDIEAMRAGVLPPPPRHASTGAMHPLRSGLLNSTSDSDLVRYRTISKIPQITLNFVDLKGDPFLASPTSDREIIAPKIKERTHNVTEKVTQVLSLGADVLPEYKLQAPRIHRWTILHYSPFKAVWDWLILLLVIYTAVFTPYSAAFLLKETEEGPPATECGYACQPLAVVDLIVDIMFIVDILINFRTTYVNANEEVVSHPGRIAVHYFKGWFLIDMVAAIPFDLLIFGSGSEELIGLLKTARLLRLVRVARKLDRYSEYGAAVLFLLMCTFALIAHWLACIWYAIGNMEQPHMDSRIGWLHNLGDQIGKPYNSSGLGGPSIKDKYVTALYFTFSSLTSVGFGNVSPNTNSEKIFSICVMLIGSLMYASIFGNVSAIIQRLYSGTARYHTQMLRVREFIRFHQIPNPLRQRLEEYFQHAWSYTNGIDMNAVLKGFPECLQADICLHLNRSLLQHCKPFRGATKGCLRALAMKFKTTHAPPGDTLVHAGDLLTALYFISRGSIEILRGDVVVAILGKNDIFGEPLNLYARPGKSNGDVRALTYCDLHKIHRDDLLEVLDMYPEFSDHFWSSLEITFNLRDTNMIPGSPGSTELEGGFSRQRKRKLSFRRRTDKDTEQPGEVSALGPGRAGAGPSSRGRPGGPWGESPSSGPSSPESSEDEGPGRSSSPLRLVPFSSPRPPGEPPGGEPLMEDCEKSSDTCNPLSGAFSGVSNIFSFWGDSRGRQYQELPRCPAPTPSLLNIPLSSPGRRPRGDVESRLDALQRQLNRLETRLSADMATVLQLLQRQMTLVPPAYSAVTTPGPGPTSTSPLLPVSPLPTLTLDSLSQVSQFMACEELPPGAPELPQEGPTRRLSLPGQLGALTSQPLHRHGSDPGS

Structure (SMILES) | hERG current change (%, negative = inhibition) at 10uM
O=C(NCc1ccccn1)C(=O)NN=C1CCCCCCCCCCC1 | 5.19%
Cc1cccc(OCCCC(=O)Nc2nccs2)c1 | 4.39%
CCN1CCN(CCC(=O)Nc2ccc(Br)c(C)c2)CC1.Cl | -30.8%
O=C(NCc1cccnc1)Nc1ccc(Cl)c(Cl)c1 | -0.174%
Cc1noc(C)c1COc1ccccc1C(=O)N(C)CC(=O)Nc1ccc(Cl)c(Cl)c1 | -21.4%
CCc1nnc(NS(=O)(=O)c2ccc(NC(=S)NC(=O)/C=C/c3ccc(C(C)C)cc3)cc2)s1 | 8.63%
CC(O)C(=O)N/N=C/c1ccccc1C(=O)O (stereo not shown) | 14%
CN(C)CCNc1nc(-c2ccco2)c2c(c1C#N)CC(C)(C)OC2 | -55.7%
CCCCCN(C(=O)CCC(=O)OCc1cccc(C(F)(F)F)c1)c1c(N)n(CCCC)c(=O)[nH]c1=O | 1.99%
Cc1cc(-c2nnc(CCC(=O)NC(Cc3ccccc3)c3ccccc3)o2)no1 (stereo not shown) | -0.709%
Cc1ccc(NC(=O)Nc2nc3ccccc3s2)cc1NC(=O)Nc1nc2ccccc2s1 | 6.17%
O=C(NCCc1ccccc1)C1CCCN(c2cnccn2)C1 (stereo not shown) | 12.8%
Cc1cc(NC(=O)CC(C)(C)C)nc2c1c(=O)oc1ccccc12 | 12%
CC(=O)Nc1ccc(S(=O)(=O)NCCC(=O)OC(C)C(=O)NC2(C#N)CCCCC2)cc1 (stereo not shown) | -20.2%
CCOc1ccc(OCCSc2nnnn2-c2ccccc2)cc1 | -3.82%
CCSc1ncc(C#N)c(=O)[nH]1 | 27.4%
CC1CCc2sc(C(=O)NNC(=O)c3ccncc3)cc2C1 (stereo not shown) | -0.00082%
Cc1nc(NC(=S)NC(=O)COc2ccc(Cl)cc2)ccc1Br | 2.01%
COc1ccc(C(=O)N(NC(=O)Oc2ccccc2)C(C)(C)C)cc1 | -0.877%
CCC(C)NS(=O)(=O)c1ccc(OCC(=O)NCc2ccc(OC)cc2)cc1 (stereo not shown) | 24.7%
O=C(CNC(=O)c1ccc(Br)o1)Nc1ccccc1 | 15.8%
CN(C)/C=N/c1cc(=O)[nH]c(=O)n1C | 13.6%
O=C(Nc1ccc(N2CCOCC2)cc1)NC1CCCCC1 | 6.25%

Structure (SMILES) | hERG current change (%, negative = inhibition) at 10uM
COc1cccc(OCC(O)CN2CCC(Cc3ccccc3)CC2)c1.Cl (stereo not shown) | -70.4%
CCCNC(=O)C12CCC(C)(C(=O)O1)C2(C)C (stereo not shown) | 17.2%
CCCCOc1ccc(C(=O)N(Cc2ccccc2)C2CCS(=O)(=O)C2)cc1 (stereo not shown) | -31.8%
Cc1ncc([N+](=O)[O-])n1CCOC(=O)c1ccccc1 | 8.09%
CC(C)(C)c1ccc(C(=O)N2CCC(C(=O)c3ccccc3)CC2)cc1 | -16.7%
Cc1ccc(/C=C2\C(=O)NC(=O)N(Cc3ccccc3Cl)C2=O)o1 | 21.5%
O=C(COc1ccc(Br)cc1)N1CCc2ccccc21 | 20.2%
COc1ccccc1CN(C)C(=O)C(NC(=O)Cc1cccc2ccccc12)C(C)C (stereo not shown) | 16.7%
C=CCn1c(SCC(=O)NCc2ccco2)nnc1C1CCCCC1 | 4.13%
O=C(NC(=O)c1ccccc1)Nc1cccc(S(=O)(=O)N2CCCCC2)c1 | -43.4%
Cc1nc2ccccc2n1Cc1ccccc1Br | -9.21%
Cc1ccc(C(C)C)cc1OCCCCN1CCCC1 | -49%
CCOc1ccc(NC(=S)N2CCC(C(N)=O)CC2)cc1 | 1.31%
Cc1ccc(/C=N/NC(=O)Cc2cccn2C)s1 | -7.36%
CCOc1cc(N2CCOCC2)c(OCC)cc1NC(=O)Cc1cccc2ccccc12 | -7.49%
CCCN(CCC)C(=O)CC(c1ccc(F)cc1)c1ccco1 (stereo not shown) | -8.46%
O=C(Cc1ccccc1[N+](=O)[O-])N1CCc2ccccc2C1 | 1.78%
O=C(C1CCCN1S(=O)(=O)c1ccc(Cl)c(Cl)c1)N1CCOCC1 (stereo not shown) | 2.37%
COCC(=O)N1CCC(Oc2ccc(C(=O)NC3CCOC(C)(C)C3)cc2)CC1 (stereo not shown) | 7.18%
O=c1nc(N2CCCCC2)nc2n1CCO2 | 1.75%
Cc1ncc(CO)c(/C=N/NC(=O)c2cc3c(s2)CCCC3)c1O | 7.39%
CCC(C(=O)NCC1CCCO1)N(C(=O)c1snc(C(N)=O)c1N)c1ccc(Cl)cc1 (stereo not shown) | 19.9%
Clc1ccc(CN2CCN(c3ncccn3)CC2)cc1Cl | 9.98%

Structure (SMILES) | hERG current change (%, negative = inhibition) at 10uM
O=S(=O)(Cc1ccccc1Cl)NCCc1ccccc1 | -14.1%
O=[N+]([O-])c1ccc(C2OCCO2)cc1CS(=O)(=O)c1ccccc1 | 4.91%
Cc1cccc(N2CCN(S(=O)(=O)c3ccc4c(c3)NC(=O)CO4)CC2)c1C | 13%
CN1CCN(CCCNC(=O)c2cn(C3CCCCC3)c(=O)c3c2c2ccccc2n3C)CC1 | -3.14%
Cc1cccc(-c2nnc(SCCC(=O)N3CCOCC3)o2)c1 | -5.85%
COc1ccc(C(=O)c2nc3ccccc3n2C(C)C)cc1OC | -16.5%
CC(=O)Nc1ccc(OC(F)(F)Cl)cc1 | 3.3%
COc1ccc(Nc2cc(Nc3cc(OC)c(OC)c(OC)c3)ncn2)cc1 | -8.37%
CCc1ccc(N=CC23c4ccccc4C(c4ccccc42)C2C(=O)N(c4ccc(OC)cc4)C(=O)C23)cc1 (stereo not shown) | 8.42%
Cc1nnc(N(C)C(=O)Cc2ccc3c(c2)OCO3)s1 | 6.4%
C/C(=N\O)c1ccc2c(c1)CC(C)O2 (stereo not shown) | 13.7%
O=C(CCNC(=O)c1ccco1)Nc1ccc(F)c(Cl)c1 | 23.1%
CS(=O)(=O)c1ccc(Cl)c(NC(=O)CSc2nnc(C3CC3)n2C2CC2)c1 | -2.61%
CCn1c(SCc2ccc(C(=O)OC)o2)nnc1-c1c[nH]c2ccccc12 | -20.3%
COc1ccc(C(=O)NCC(=O)OCC(=O)Nc2ccc(C)c(S(=O)(=O)N(C)C)c2)cc1OC | -5.57%
C#CCN(Cc1ccccc1)S(=O)(=O)C=C | -7.33%
COc1ccc(/C=N/NC(=O)c2cc(C(C)(C)C)[nH]n2)cc1COc1ccc(F)cc1F | -7.91%
C#CCOc1ccc(/C=C2/C(=O)N(c3cccc(C(=O)O)c3)N=C2C)cc1OC | -2.13%
O=C(COC(=O)c1cc([N+](=O)[O-])ccc1N1CCOCC1)NCc1ccc(Cl)cc1Cl | -63%
N/C(=N\OC(=O)CCCN1C(=O)c2ccccc2C1=O)c1ccc(Cl)cc1 | -11.8%
N/C(Cc1ccc(Cl)c(Cl)c1)=N\OC(=O)c1ccc(Br)o1 | 12.6%
CN(NC(=O)c1ccc(Cl)cc1Cl)C1=NS(=O)(=O)c2ccccc21 | -2.53%
COc1ccc(C(=O)NCc2cc3ccccc3n2C)cc1 | 28.6%

Structure (SMILES) | hERG current change (%, negative = inhibition) at 10uM
Cc1ccc(C)c(N2CCN(C(=O)Cc3ccc(-n4c(=O)[nH]c5ccsc5c4=O)cc3)CC2)c1 | -31.2%
O=C(NCC1CCCO1)C1CC1(c1ccccc1)c1ccccc1 (stereo not shown) | 6.02%
CCN1C(=O)[C@H]2[C@@H](c3ccc(C)cc3)N3C(=O)N(c4cccc(Cl)c4)C(=O)[C@@]3(CC(C)C)[C@H]2C1=O | 0.452%
COC(=O)C1C(C(C)C)N(c2ccccc2)OC1(C)O (stereo not shown) | -11.3%
Cc1ccc(OCCC(=O)O)cc1 | 13.4%
COc1ccc(CCNC(=O)NS(=O)(=O)c2ccc(C)cc2)cc1OC | 10.5%
NS(=O)(=O)c1ccc(NC(=O)C2Cc3ccccc3CN2C(=O)c2ccco2)cc1 (stereo not shown) | 6.57%
Cc1cccc(NC(=O)N2CCCC2)c1 | 12.4%
CC(=O)CCC(C)=O | 16.4%
O=C(COC(=O)C1CCN(c2ccc(C(F)(F)F)cn2)CC1)c1ccccc1 | -6.49%
COc1ccc2oc(=O)c(C(=O)N3CCCc4ccccc43)cc2c1 | -63.1%
COc1ccc([C@H]2CC(=O)C=C(c3c(OC)cccc3OC)C2)cc1 | -11.2%
O=C(C1CCC1)N1CCc2cc(S(=O)(=O)NCC3COc4ccccc4O3)ccc21 (stereo not shown) | -6.69%
CC(=O)c1ccc(S(=O)(=O)NCC(=O)Nc2nc3ccccc3[nH]2)cc1 | -8.14%
FC(F)Oc1ccc(NC(=S)Nc2ccc3cn[nH]c3c2)cc1 | -79.5%
Cc1cc(C)n2nc(SCc3nnc(SCc4ccccc4Cl)s3)nc2n1 | 9.19%
Cc1ccc(C)c(S(=O)(=O)Nc2ccc(C(N)=O)cc2)c1 | 14.9%
COc1ccc(C(=O)CCC(=O)Nc2cccnc2)c(OC)c1 | 7.08%
COC(=O)C1=C(C)N(C)C(=S)NC1c1ccccc1 (stereo not shown) | -7%
CCNc1nc(NC(C)CC)nc(Oc2ccc(OCC)nn2)n1 (stereo not shown) | -8.07%
COC(=O)c1ccccc1NC(=O)c1cc2ccccc2o1 | 22.1%
CN1CCN(C(=O)CN(Cc2ccc(Cl)cc2)S(C)(=O)=O)CC1 | -6.56%
